In ChEMBL document CHEMBL4888484, “Replenishing the malaria drug discovery pipeline: Screening and hit evaluation of the MMV Hit Generation Library 1 (HGL1) against asexual blood stage Plasmodium falciparum ,using a nano luciferase reporter read-out” (2022):
Out of some 150,000 compounds screened, about 540 (0.36%) showed an effect of 50% or more. This is one part of the list.

test system: Plasmodium falciparum; assay: Primary screen in NF54 nanoGlo assay, in single point, at 2uM, 72h; a lower Z score goes with more inhibition; type: functional, Erythrocyte; conditions: timepoint 72 hour

Compound	% Inhibition [%]	Z score
CCOC(=O)c1ccc(NS(=O)(=O)C[C@H](OC)C(C)C)c(O)c1	6	-0.59
Cc1csc(CN(C)Cc2nc(C(F)(F)F)no2)n1	-8	1.36
COc1nccc(CNC2(c3ccc(F)cc3F)CCOCC2)n1	-5	0.88
CCN=C(NCc1ccccn1)NCc1ccc(OC)cc1OC	-5	0.81
Cc1cnc([C@H](C)NC(=O)NCc2c(C)nc3ccccn23)s1	-2	0.35
CC(=O)Nc1ccc(C)cc1S(=O)(=O)N1CC=C(c2c(C)n(Cc3ccc(Cl)cc3)c3ccccc23)CC1	-14	1.87
CN(CC1CCC1)C(=O)NCc1nnn(C)n1	-8	1.37
CCN(CC)S(=O)(=O)NC[C@H]1CCCN1C(=O)OC(C)(C)C	-7	0.69
COC[C@H]1CCN1C(=O)c1ccc(C(C)C)s1	-6	0.57
COc1ccc(-c2cc(C(=O)NCCN3CCOCC3)c3cccc(-c4ccc(F)cc4)c3n2)cc1	3	-0.43
Cc1cccnc1Nc1nc(C)c(C(=O)Nc2ccc3c(c2)OCO3)s1	-7	1.03
CCC(CCO)CNS(=O)(=O)CC1CN(C(=O)OCc2ccccc2)CCO1 (stereo not drawn)	-9	1.15
COC(=O)[C@@H]1CC[C@@H](c2ccccc2)N1Cc1nc(C(C)C)no1	-6	0.77
CN1CCO[C@@H](CNC(=NC2CC2)NCc2ccccc2F)C1	0	0.06
O=C1NC[C@H]2CN(Cc3cc4ccccc4s3)CCN12	-5	0.66
CC(=O)N[C@H]1C[C@@H](c2c(Cl)ccc(C)c2F)O[C@@H](C(C)C)C1	-4	0.5
CC(C)c1ccc(C(=O)N2CC[C@@]3(CO)CN(Cc4ccccc4)C[C@H]3C2)cc1	-12	2.14
COC1CCC(NC(=O)c2cnn3c2N[C@@H](C)C[C@H]3C(F)F)CC1 (stereo partly drawn)	-3	0.3
O=C1NCCN(C(=O)c2ccc(-c3ccc(O)cc3F)cc2)[C@H]1CCO	-16	1.5
COc1nc(N(C)C)nc(N2CC(=O)N(c3ccc(Cl)cc3)C2=N)n1	3	-0.33
CC(C)Cn1c(=O)c(-c2ccc(C(=O)Nc3ccc4c(c3)OCCO4)cc2)nc2ccccc21	-23	2.27

Compound	% Inhibition [%]	Z score
OCCn1ccnc1-c1cccc(-c2ccco2)c1	1	-0.12
CCOC1CC(NC(C)C2CN(C)CCO2)C1(C)C (stereo not drawn)	-9	1.22
CN(Cc1nnnn1-c1ccccc1)C1CCCCC1	-14	1.46
C=CCN(C(=O)c1ccc(OCC(F)(F)F)nc1)C1CC1	-18	2.38
O=C(Nc1cc(F)c(F)c(F)c1)N1CCC2(CCO2)CC1	5	-0.87
O=C(Nc1cc(C(=O)NCCn2ccnc2)c2c(c1)ncn2C1CCCC1)c1ccccc1	-9	1.53
Cc1noc(Cl)c1CCC(=O)N(C)c1cnn(C)c1	-11	1.83
CCN=C(NCc1c(C)noc1C)N(C)Cc1cn(C)nc1C(C)C	0	-0.02
COc1ccccc1-n1c(=O)[nH]c2nc(NCc3cccnc3)ncc2c1=O	1	-0.13
CN(C)c1nc(N2CCN(c3ccccc3F)CC2)nc2c1CN(S(=O)(=O)c1ccccc1)CC2	-1	0.1
CC(=O)N1N=C(c2cc(-c3ccccc3)nc3ccccc23)O[C@H]1c1ccc(C(F)(F)F)cc1	13	-1.63
COc1cccc([C@@H]2CCCCN2Cc2ccc(N(C)C)nc2)c1	-8	0.91
COC1=NCCN(C(=O)OC(C)(C)C)C(C)(C)C1	-8	0.75
O=C(NCCCN1CCOC1=O)c1ccon1	1	-0.2
CC(=O)N1C[C@H]2CC[C@@H](C1)N(C(=O)c1cc(C)nc3c(Cl)cccc13)C2	-1	0.19
COCCN1CCN(Cc2nc(C)c3ccccc3n2)CC1	-1	0.21
CC(C)(C)c1ccc(S(=O)(=O)N2CCC(C(=O)O[C@H]3CCOC3=O)CC2)cc1	2	-0.34
CC(C)c1nnsc1C(=O)N1C[C@@H](CN2CCN(C)CC2)[C@@H](CO)C1	2	-0.19
CCn1cc(CN(Cc2ccoc2)CC(C)C)cn1	9	-1.68
CCc1c(C)nc(C)nc1-c1ccc(C(=O)N2CCC(C#N)CC2)cc1	-1	0.18
C[C@@H]1N[C@@]2(C(=O)Nc3ccccc32)[C@@H]2C(=O)N(c3cccc(Cl)c3)C(=O)[C@H]12	-6	0.83

Compound	% Inhibition [%]	Z score
Cc1ncsc1CCC(=O)N1CC[C@@](O)(c2ccccc2)[C@H]2CCCC[C@H]21	4	-0.94
CC(C)c1c[nH]nc1NC(=O)[C@H](C)c1ccsc1	-7	1.28
CC(Nc1ccc(C#N)cn1)C(C)n1cccn1 (stereo not drawn)	-9	1.68
COc1ccc(C(=O)N2CCN(Cc3c(-c4ccc(F)cc4)nc4ccc(-c5cccc(C)c5)cn34)CC2)cc1	-18	2.05
CCc1c(C)nn(C)c1NC(=O)c1cc(C)nn1CC	-10	1.15
COc1cccc(NC(=O)c2[nH]c3cc(C)sc3c2CN2CCCC2)c1	-13	1.27
CC1(C)C2CN(C(=O)NC3CCN(c4ccc(C#N)cc4)CC3)CC21 (stereo not drawn)	-17	2.57
Cc1noc(C)c1CN(C(C)C)C1CC1	-14	2.23
O=C(Nc1ccc(Oc2ccc(Br)c3ccccc23)c(Cl)c1)c1cc(Cl)ccc1O	-3	0.42
O=C1C[C@H](c2cccnc2N2CCOCC2)c2c(-c3ccccn3)n[nH]c2N1	-1	0.27
CNC(=O)c1noc(CN2CCC3(CCC(=O)N(CCOC)C3)CC2)n1	-11	1.81
Cc1ccc(-c2ccc(C(N)=O)s2)c(-n2cccn2)c1	-13	2.44
COc1ccc(C[C@@]2(CCC(=O)N(C)CCc3cn[nH]c3)CCC(=O)N2)c(F)c1	11	-1.46
CCC(=O)N1CC2(C)CN(C(=O)CC)CC(c3ccccc3)(C1)C2=O	-12	1.09
CCN1C(=O)CC(C(=O)O)C1c1cccc(C)c1 (stereo not drawn)	5	-0.45
Cc1cc(C(=O)NCCCn2cccn2)on1	-4	0.75
C[C@H](OCC1CC1)C(=O)NCCNC(=O)Cc1ccccc1	10	-1.51
C=CCc1cc(CN(C)Cc2nncn2C(C)C)ccc1OCC	3	-0.44
COCCN(Cc1cc2ccc(OC)cc2nc1N(C)C)C(=O)c1ccccc1C(F)(F)F	2	-0.3
CC(C)=CCC[C@@]1(C)CCC(=O)N(CCn2c(C)cc(C)nc2=O)C1	-24	2.42
O=C(Nc1nc(-c2ccc(Cl)cc2)cc(-c2ccc(Cl)cc2)n1)c1cccs1	-10	1.94

Compound	% Inhibition [%]	Z score
Nc1nc(NC2(c3ccccc3Cl)CC2)cc([C@H]2CCOC2)n1	6	-0.74
COC(=O)CN1CCC(NC(=O)[C@@]23CC[C@@](C)(OC2=O)C3(C)C)CC1	5	-0.69
Cc1cccc(NC(=O)N[C@H]2CCOC(C)(C)C2)n1	3	-0.3
CCCc1noc(COc2cccnc2C#N)n1	-8	1.42
Cn1cc(-c2cc(F)ccc2NC(=O)N2CCC(n3ccnn3)CC2)cn1	-13	2.49
CN(C[C@H](O)C(F)(F)F)S(=O)(=O)C1CC1	1	-0.1
Cc1ccc([C@@H](NCC(=O)Nc2ccc3c(c2)OCO3)c2ccccc2)cc1C	-8	1.12
CCc1nc2ccc(Cl)cn2c1C(=O)N1CCOCC12CCC2	5	-0.63
c1ccc(-n2nnc(-c3noc(-c4cccs4)n3)c2-c2ccncc2)cc1	-19	3.7
N#Cc1cccc(CN2CCN(c3ccncc3)C[C@@H](O)C2)c1	-8	0.74
N#CC1(CNC(=O)c2cccnn2)CCCCC1	-6	0.7
COc1cccc(-c2c[nH]c([C@@H]3CCCN3C(=O)c3cnn(C)c3)n2)c1	-7	0.96
C[C@@H](C(=O)NCCc1cc[nH]n1)N1CCN(C)CC1	-2	0.36
COc1ccc(C(=O)Cn2c(N3CCCCC3)nc3c2c(=O)n(C)c(=O)n3C)cc1OC	-5	0.53
C[C@H](NC(=O)C1CC=CC1)C(C)(F)F	3	-0.68
OC1CCN(Cc2ccc(CNc3ccc(F)cn3)cc2)CC1	-6	0.93
Cn1nccc1CCC(=O)N1CCCC1CC1CC2CCC1C2 (stereo not drawn)	-12	1.21
COc1ccc(Cc2n[nH]c(CCNC(C)=O)n2)cc1OC	4	-0.41
O=C(Cn1ccnn1)N(Cc1cccc(Br)c1)CC1CC1	-9	1.58
COc1ccc2[nH]c3c(c2c1)CCN(C)C31CCN(C(=O)c2ccoc2)CC1	9	-1.69
CCCCc1noc([C@H](C)NCCn2cc(C)cn2)n1	-14	1.57
